# Assay results as given in paper PMC4336329 (PLoS ONE, 2015).
# Among all 310,000 compounds or so, about 14,000 (4.5%) showed an effect of 50% or more. Effects have a minus sign here. Some of the results follow.
# Target: human ether-à-go-go-related gene (hERG) potassium channel (human, UniProt Q12809)
# Assay: primary screen, population patch clamp on CHO cells stably expressing hERG
# 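Further: peak tail current of the secondary pulse compared with the same well before compound.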
# human ether-à-go-go-related gene (hERG) potassium channel, sequence (Q12809 whole entry, looked up): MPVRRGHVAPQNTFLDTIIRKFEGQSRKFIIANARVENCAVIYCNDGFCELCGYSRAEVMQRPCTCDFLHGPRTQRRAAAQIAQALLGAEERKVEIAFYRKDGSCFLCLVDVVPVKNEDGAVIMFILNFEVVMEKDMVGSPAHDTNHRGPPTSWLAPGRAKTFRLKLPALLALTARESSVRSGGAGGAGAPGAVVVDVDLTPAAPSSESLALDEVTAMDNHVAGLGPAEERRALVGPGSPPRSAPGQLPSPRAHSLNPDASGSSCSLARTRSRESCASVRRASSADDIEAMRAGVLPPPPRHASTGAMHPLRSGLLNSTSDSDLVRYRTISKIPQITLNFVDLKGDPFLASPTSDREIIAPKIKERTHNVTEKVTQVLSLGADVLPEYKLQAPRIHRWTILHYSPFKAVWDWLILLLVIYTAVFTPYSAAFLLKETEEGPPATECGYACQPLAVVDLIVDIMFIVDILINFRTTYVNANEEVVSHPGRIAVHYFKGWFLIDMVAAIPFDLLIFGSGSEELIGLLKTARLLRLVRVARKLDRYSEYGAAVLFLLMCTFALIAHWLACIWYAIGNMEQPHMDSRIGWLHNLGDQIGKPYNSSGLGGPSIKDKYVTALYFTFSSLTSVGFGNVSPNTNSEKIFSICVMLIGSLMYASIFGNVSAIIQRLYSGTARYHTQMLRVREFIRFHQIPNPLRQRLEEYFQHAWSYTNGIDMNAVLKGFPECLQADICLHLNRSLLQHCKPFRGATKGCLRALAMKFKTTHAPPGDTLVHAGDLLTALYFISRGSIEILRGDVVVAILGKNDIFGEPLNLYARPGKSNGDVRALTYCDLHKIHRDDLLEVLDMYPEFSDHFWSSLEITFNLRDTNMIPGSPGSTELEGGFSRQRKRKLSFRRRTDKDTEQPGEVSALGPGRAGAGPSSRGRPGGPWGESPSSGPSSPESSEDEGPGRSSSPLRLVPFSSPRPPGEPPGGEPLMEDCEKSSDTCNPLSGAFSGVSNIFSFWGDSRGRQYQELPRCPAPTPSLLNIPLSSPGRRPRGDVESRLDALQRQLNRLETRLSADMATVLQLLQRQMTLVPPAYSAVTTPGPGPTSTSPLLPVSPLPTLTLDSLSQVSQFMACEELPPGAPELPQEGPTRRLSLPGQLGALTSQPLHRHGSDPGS
row,SMILES,"hERG current change (%, negative = inhibition) at 10uM"
1,N#Cc1ccccc1Cn1c(=O)n(-c2ccc(CC(=O)NCc3ccco3)cc2)c(=O)c2sccc21,7.64%
2,CCC(CC)NC(=O)COn1nnc2ccc(S(=O)(=O)N3CCOCC3)cc21,-7.12%
3,O=C(CSc1nc2ccccc2c(=O)n1Cc1ccco1)N1CCCCCC1,-76.4%
4,Cc1nn(-c2ccccc2)c(N2CCCC2)c1/C=N/NC(=O)c1cccc(S(=O)(=O)Nc2ccc(Cl)cc2)c1,3.12%
5,O=C(NCCc1csc(-c2ccccc2)n1)c1ccco1,-29.7%
6,COc1ccc(S(=O)(=O)Nc2ccc(NC(C)=O)cc2)cc1,13.4%
7,COc1ccc(NC(=O)CCN2CCN(S(=O)(=O)c3ccc(OC)cc3)CC2)cc1,-25%
8,COCCn1c(SCC(=O)N2CCC(C)CC2)nc2c([nH]c3ccccc32)c1=O,-19.8%
9,Cc1ccc(Cn2nc(C)c(NC(=O)CSc3nc4c(c(C(F)(F)F)n3)CCc3ccccc3-4)c2C)cc1,13.1%
10,O=[N+]([O-])c1cc(-c2nnc(-c3ccccc3)o2)ccc1Oc1ccc(Cl)cc1,-0.998%
11,N#CCCn1cc(C(=O)NCc2ccccc2)c(-c2ccccc2)n1,-13.6%
12,CSc1nc(-c2ccc(Cl)cc2)nn1S(=O)(=O)c1ccc(Cl)cc1,-0.316%
13,Cn1c(N)c(C#N)c2c(c1=S)CSC(C)(C)C2,-41.2%
14,CCOc1ccc2nc(SCC(=O)NCc3ccc(OC)c(OC)c3)[nH]c2c1,4.2%
15,Cc1cccc(C(=O)O/N=C2\CCCc3ccccc32)c1,8.49%
16,Cc1cccc(-n2c(-c3ccoc3C)n[nH]c2=S)c1,32.9%
17,CCOC(=O)N1CCN(c2c(N3CCN(c4cc(C)ccc4C)CC3)c(=O)c2=O)CC1,-15.1%
18,Cn1c(=O)c2nc(-c3ccc(Cl)cc3Cl)oc2c2ccccc21,18.4%
19,O=C(CN1C(=O)CCSc2ccccc21)Nc1ccccc1,-15%
20,COC(=O)c1[nH]c2cccc(OC)c2c1NC(=O)CN1CC(C)OC(C)C1 (stereo not drawn),5.32%
21,Cc1ccc(SCCNC(=O)c2ccc([N+](=O)[O-])c(C)c2)cc1,-10.3%
22,COc1ccc(NS(=O)(=O)c2ccc(C(=O)OC(C)C(=O)N3CCOCC3)cc2)cc1 (stereo not drawn),-17.3%

row,SMILES,"hERG current change (%, negative = inhibition) at 10uM"
1,COc1cccc(C(=O)NCCS(=O)(=O)N(C)C2CCCCC2)c1,-18.9%
2,O=c1c2ccccc2nc(/C=C/c2ccccc2)n1-c1ccccc1O,9.71%
3,Cn1c(O)c(N=Nc2ccccc2[N+](=O)[O-])c2ccccc21,11.9%
4,COc1cc(OC)cc(-c2nc3ccccc3s2)c1,-3.1%
5,CCNc1nc(SCCOc2ccc(Br)cc2)nc(N(C)C)n1,19.6%
6,O=c1[nH]c(CSc2cccc[n+]2[O-])nc2ccccc12,-0.346%
7,CC1CN(c2nc(N(C)c3ccccc3)nc(N)c2[N+](=O)[O-])CC(C)O1 (stereo not drawn),-7.34%
8,Cc1ccc(C)c(CS(=O)(=O)c2cn(CC(=O)N3CCC(C)CC3)c3ccccc23)c1,-15.2%
9,Cc1csc(NC(=O)c2nc3nccc(C)n3n2)n1,7.42%
10,COC(=O)c1sccc1NC(=S)N1CCN(c2ccccc2F)CC1,28.3%
11,COc1ccccc1OCCCOc1ccc(/C=C2\SC(=O)NC2=O)cc1OC,18.5%
12,COc1ccc(C(C)=O)cc1CC(=O)NCCCn1ccnc1,13.3%
13,Cc1cccc(Oc2ccc(NC(=O)c3ccccc3C(=O)O)cc2)c1C,19%
14,O=C(CSc1cccc[n+]1[O-])Nc1ccc2c(c1)OCO2,6.96%
15,CC1=C(C)C(c2ccccc2)NC(=S)N1 (stereo not drawn),35.3%
16,CCOC(CNC(=O)c1ccc(CNC(=O)c2ccc(OC)c(OC)c2)cc1)OCC,20.2%
17,CS(=O)(=O)N1CCN(C(=O)C2c3ccccc3Oc3ccccc32)CC1,-10.2%
18,O=C(COC(=O)c1c(F)cccc1F)NCc1ccc2c(c1)OCO2,8.43%
19,O=C(CCC(=O)Nc1ccc(Br)cc1)N/N=C/c1cc([N+](=O)[O-])ccc1O,20.7%
20,COc1cc(OC)cc(C(=O)Nc2ccc(N3CCOCC3)cc2N2CCOCC2)c1,-32.5%
21,CN(C)c1nc(C(=O)NN)nc(N(C)C)n1,1.32%
22,C#CC1CN(Cc2ccccc2)CC(C#C)N1C.Cl (stereo not drawn),15.4%

row,SMILES,"hERG current change (%, negative = inhibition) at 10uM"
1,O=C(Nc1cccnc1)c1ccc(NS(=O)(=O)c2cccc([N+](=O)[O-])c2)cc1,1.53%
2,O=C(CN1CCN(C(=O)c2ccccc2F)CC1)Nc1ccc(Br)cc1,-64.6%
3,Cc1cc(NCc2ccncc2)ccc1Br.O=C(O)C(=O)O,-0.637%
4,Cc1cccc(NC(=O)CN2CCN(C(=O)COc3cccc(Br)c3)CC2)c1C,-70.4%
5,COc1ccc(NC(=O)CC2(CC(=O)O)CCCC2)cn1,16.7%
6,CC(C)(C)NC(=O)Cn1nnc(-c2ccccc2Cl)n1,6.43%
7,COc1ccccc1CNC(=O)c1ccccc1NC(=O)C1=C(C)OCCS1,4.46%
8,Cc1ccc(/C=C/C(=O)O)cc1S(=O)(=O)NCc1ccco1,14.5%
9,COc1ccccc1CN1CC(C(=O)N2CCCCO2)CCC1=O (stereo not drawn),-65.7%
10,CC(=O)c1cccc(S(=O)(=O)N2CCn3cccc3C2C)c1 (stereo not drawn),-8.58%
11,O=C(CSc1cccs1)Nc1cccc2ccccc12,-8.86%
12,COc1ccccc1[C@@H]1C(c2cccc(Cl)c2)=NN(c2ccc(Br)cc2)[C@H]1C(=O)N1CCOC1=O,18.5%
13,COc1ccc(/C=C/c2nnc(NC(=O)C(C)(C)C)s2)cc1,-27.2%
14,Cc1ccc2nc(Nc3nc(CSc4nnnn4-c4ccccc4)cc(=O)[nH]3)nc(C)c2c1,-23.8%
15,O=C(NCCCN1CCN(c2ccccc2F)CC1)C1CCC(=O)N1C1CCCCC1 (stereo not drawn),-12.2%
16,COc1ccc(Cc2nnnn2CC(=O)O)cc1,1.51%
17,CC1(C)NC(=O)N(CC(O)COc2cc3ccccc3cc2C(=O)N2CCCCC2)C1=O (stereo not drawn),-4.31%
18,COC(=O)c1ccc(CO/N=C/c2ccccc2OC)cc1,19.3%
19,Cc1c(Cl)cccc1NC(=S)N1CCC(C(N)=O)(N2CCCCC2)CC1,-16.5%
20,CC1CCCC(NC(=S)Nc2cccc(S(=O)(=O)N(C)C)c2)C1C (stereo not drawn),13.7%
21,CN(C1CCS(=O)(=O)C1)S(=O)(=O)c1ccc(N2CCCC2=O)cc1 (stereo not drawn),4.8%
22,COCC(=O)N(c1ccccc1)C(C)C(=O)OC (stereo not drawn),-4.9%

row,SMILES,"hERG current change (%, negative = inhibition) at 10uM"
1,COc1ccccc1CNC(=O)COc1ccc(S(=O)(=O)N2CCOCC2)cc1C,-18.5%
2,Cl.O=C(CCN1CCN(c2ccccc2F)CC1)c1ccc(Br)cc1,-84.5%
3,CCC(=O)OCC(=O)Nc1ccc2c(c1)OCO2,28.3%
4,O=C(/C=C/C=C/c1ccc2c(c1)OCO2)N1CCCCC1,-8.23%
5,Clc1ccccc1-c1nn2c(Cn3cnc4ccccc43)nnc2s1,-12.3%
6,O=C(CSC1c2ccccc2-c2ccccc21)N/N=C/c1ccccc1O,-3.68%
7,CCOC(=O)c1c(NC(=O)CNC2CCCCC2)sc(C)c1C,10.3%
8,O=C(CN1C(=O)NC2(CCCCC2)C1=O)Nc1cc(C(F)(F)F)ccc1N1CCCCC1,-1.7%
9,NS(=O)(=O)c1ccc(-c2ccc(/C=N/NC(=O)c3ccccc3O)o2)cc1,23.8%
10,Cc1noc(C)c1COc1ccc(C(=O)OCC(=O)NCc2ccccc2Cl)cc1,-1.66%
11,CCc1c(C)c(C#N)c2nc3ccccc3n2c1-n1nc(C)cc1C,-1.87%
12,CC(=O)C1=C(O)C(=O)N(c2ccc(C(=O)O)cc2)C1c1ccc([N+](=O)[O-])cc1 (stereo not drawn),20.9%
13,CN(C)c1nc(OCCNC(=O)COc2ccccc2Cl)nc(N(C)C)n1,6.99%
14,Nc1ccccc1SCC1CSc2nc3ccccc3c(=O)n21 (stereo not drawn),-45.2%
15,CC(C)[C@H](NC(=O)c1cc2cc(Cl)ccc2n1C)C(=O)N1CCC(C(=O)O)CC1,17.8%
16,Cc1ccccc1-n1c(SCC(=O)c2cc(C)n(C)c2C)nnc1-c1ccncc1,-24.6%
17,COCCN1CN=C(NS(=O)(=O)c2ccc(C)cc2)NC1,16.3%
18,CC(=O)c1ccc(OCCNS(=O)(=O)c2ccc(-n3cnnn3)c(C)c2)cc1,-2.88%
19,COc1cc(/C=C2\SC(=Nc3ccccc3OC)NC2=O)ccc1O,-21.4%
20,COc1ccc(OC)c(C(=O)NC(CC(N)=O)c2ccc(NCCN3CCCC3)c([N+](=O)[O-])c2)c1 (stereo not drawn),8.75%
21,CC(=O)c1ccc(NC(=O)CN2CCC(C(=O)c3ccc(F)cc3)CC2)cc1,-22.9%
